Source: PubChem BioAssay AID1347120 (National Center for Advancing Translational Sciences (NCATS), 2019)
In all, about 390,000 compounds went through this assay and about 930 (0.24%) were called active. This list was built around the results that the source calls inconclusive (neither active nor inactive); the mix of calls is not that of the screen. Calls follow the shape of the dose curve; as a rule, active = well fitted activation curve with a large enough effect; inconclusive = small, poorly fitted or top-dose-only effect; inactive = no such curve, though single readings can be large or run the other way. Potencies of inconclusive entries are doubtful fits and often do not repeat.

Assay: qHTS for Suppressors of FUS Proteinopathy: Primary screen using FUS-linked yeast assay; also: nearly all actives have a fitted effect of over 55% in size;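 as to growth rescue (activation): plate controls were DMSO vehicle for no effect and reference control for full effect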
Details: S. cerevisiae FUS-expressing, OD600, 24 h; Potency: growth rescue; growth rescue (activation): at 76.6 µM (top of the series)
Summary of the method: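 FUS-expressing yeast, raffinose-pregrown, induced in 2% galactose minimal medium at OD 0.005; compounds in a dilution series, 24hr at 30C. Growth restoration read as absorbance at 600 nm. CP55940 positive control, DMSO negative.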
Potency is read from the fitted curve at half-maximal effect; tags tell the direction and shape of the fitted curve.

Q: With CCCNC(=O)c1ccc(N2CCC3(CC2)CC(c2cccc(Br)c2)=NO3)c([N+](=O)[O-])c1 as the compound, how does the Potency read?
A: Its Potency is inconclusive: 25.1 µM [activator, single point].

Q: Which “growth rescue (activation)” value does the source give for CCCN1C(=O)/C(=c2\sc3nc(=O)c(Cc4ccc(C)cc4)nn3c2=O)c2ccccc21 here?
A: Its value is inactive: 14.1%.

Q: For CN1C(=O)C(=O)N2C(=C[C@]3(c4c[nH]c5ccccc45)c4ccccc4N[C@H]23)C1=O, which Potency is on record?
A: The Potency was inconclusive: 22.4 µM [activator, single point].

Q: Which Potency does the source give for CCCCCCCCN1C(=O)[C@@H](CC(=O)NCC2CCCCC2)C[C@@]2(C(=O)OC)C1=C[C@H](COCc1ccccc1)O[C@@H]2C here?
A: Its Potency is inconclusive: 25.1 µM [activator, partial curve].

Q: For CCOC(=O)/C(C#N)=C/Nc1ccccc1OC, which “growth rescue (activation)” value is on record?
A: The value was inactive: 21%.

Q: For Cc1cc(/C=C2/NC(=O)N(Cc3ccccc3F)C2=O)c(C)n1C(C)C, which Potency is on record?
A: Its Potency is inconclusive: 39.8 µM [activator, partial curve, poor fit].

Q: With COc1ccc(N2C(=O)CS(=O)(=O)C23C(=O)N(Cc2c(F)cccc2Cl)c2ccccc23)cc1 (stereo not given) as the compound, how does the Potency read?
A: The Potency was inconclusive: 50.1 µM [activator, single point].

Q: With COCCCN(C(=O)c1cc2c(s1)CCCCC2)c1c(N)n(Cc2ccccc2)c(=O)[nH]c1=O as the compound, how does the Potency read?
A: Its Potency is inconclusive: 50.1 µM [activator, single point].

Q: Which Potency does the source give for CCNc1ccccc(C(=O)/C=C/c2ccc3c(c2)OCO3)c1=O here?
A: Its Potency is inconclusive: 35.5 µM [activator, single point].

Q: For CC(C)CCNC(=O)c1cc(Sc2ccc(F)cc2F)nc2ccccc12, which “growth rescue (activation)” value is on record?
A: The value was inactive: 6.93%.

Q: With CC(C)c1ccc(C2c3[nH]c4ccccc4c3C[C@H]3C(=O)N(c4ccccc4C(=O)N4CCC[C@@H]4C(=O)O)C(=O)N23)cc1 (stereo not given in full) as the compound, how does the Potency read?
A: Its Potency is inconclusive: 35.5 µM [activator, single point].

Q: Which Potency does the source give for O=C(Nc1cccnc1)c1sc2cccc(F)c2c1Cl here?
A: Its Potency is inconclusive: 22.4 µM [activator, partial curve, poor fit].

Q: With CCC(Oc1ccccc1)C(=O)Nc1ccc(OCc2cc(=O)n3ccc(C)cc3n2)cc1 (stereo not given) as the compound, how does the “growth rescue (activation)” value read?
A: Its value is inactive: -11.1%.

Q: Which “growth rescue (activation)” value does the source give for CSc1ncnc2c1cnn2-c1ccc(C)cc1C here?
A: The value was inactive: 2.45%.

Q: For Cc1nc(N2CCOCC2)nc(N2CCC(C)CC2)c1[N+](=O)[O-], which “growth rescue (activation)” value is on record?
A: Its value is inactive: 27.2%.

Q: For Cc1cc[n+](-c2[nH]c(=O)sc2/C=N/N=C(\[O-])CCn2c3ccccc3c3ccccc32)cc1, which Potency is on record?
A: The Potency was inconclusive: 15.8 µM [activator, partial curve].

Q: For O=C(Nc1cc(S(=O)(=O)N2CCOCC2)ccc1N1CCCC1)c1ccc2c(c1)S(=O)(=O)c1ccccc1C2=O, which “growth rescue (activation)” value is on record?
A: The value was inactive: 3.54%.

Q: With CNS(=O)(=O)c1cn(CC(=O)N2CCN(c3cccc(Cl)c3)CC2)cc1S(=O)(=O)NC as the compound, how does the Potency read?
A: Its Potency is inconclusive: 31.6 µM [activator, partial curve, poor fit].

Q: Which “growth rescue (activation)” value does the source give for COc1cc(OC)cc(-c2c(C#Cc3ccsc3)c3cc(-c4ccc(OC)nc4)ccc3n2C)c1 here?
A: The value was inactive: 20.8%.

Q: With CCN(CC)c1ccc(/C=N/NC(=O)c2nnn(-c3nonc3N)c2-c2ccc(C)cc2)cc1 as the compound, how does the Potency read?
A: The Potency was inconclusive: 50.1 µM [activator, single point].

Q: With CCOc1cccc(/C=C/c2ccc3cccc(O)c3n2)c1OC as the compound, how does the “growth rescue (activation)” value read?
A: Its value is inactive: 16.7%.

Q: For COc1ccc(C(=O)N2CCCCC2c2cc(C(=O)Nc3ccc(F)c(Cl)c3)no2)cc1 (stereo not given), which Potency is on record?
A: Its Potency is inconclusive: 25.1 µM [activator, partial curve].

Q: For COc1cc(O)c(C(CC(=O)N2CC(C)OC(C)C2)c2ccc3c(c2)OCO3)c(OC)c1 (stereo not given), which “growth rescue (activation)” value is on record?
A: Its value is inactive: 12.6%.

Q: Which “growth rescue (activation)” value does the source give for CCn1cc(C(=O)N2CCN(c3ccccc3OC)CC2)c(=O)c2cc(S(=O)(=O)N3CCC(C)CC3)ccc21 here?
A: Its value is inactive: 32.8%.

Q: Which Potency does the source give for CCn1nc(C(=O)OCC(=O)c2c[nH]c3ccccc23)c2ccccc2c1=O here?
A: The Potency was inconclusive: 3.55 µM [activator, partial curve, poor fit].

Q: Which Potency does the source give for N#CCC(=O)Nc1ccc(C(=O)NCCC(c2ccccc2)c2ccccc2)cc1 here?
A: Its Potency is inconclusive: 39.8 µM [activator, partial curve, poor fit].

Q: Which “growth rescue (activation)” value does the source give for Cc1ccc(C)c(C(C)NC(=S)NCc2ccc(F)cc2)c1 (stereo not given) here?
A: The value was inactive: -2.07%.

Q: With COc1cccc(NC(=O)Nc2nc3ncccn3c2-c2ccc(F)c(F)c2)c1 as the compound, how does the “growth rescue (activation)” value read?
A: The value was inactive: 13.9%.

Q: Which “growth rescue (activation)” value does the source give for CCc1ccccc1NC(=O)CN1C(=O)COc2ccc(S(=O)(=O)N3CCCCCC3)cc21 here?
A: Its value is inactive: -22.8%.

Q: For Cc1c(C(=O)N2CCN(S(=O)(=O)c3ccccc3)CC2)oc2ccccc12, which “growth rescue (activation)” value is on record?
A: Its value is inactive: 28.6%.

Q: For CCOc1ccc(NC(=O)COc2ccc3c(c2)CCC3)cc1OC, which growth rescue (activation) is on record?
A: The growth rescue (activation) was inconclusive: -39.8% [activator].

Q: With CCOc1ccc(CCN2C(=S)N([C@@H](CC(C)C)CN3CCC[C@@H]3CN3C(=S)NC[C@@H]3Cc3ccc(O)cc3)C[C@@H]2CC(C)C)cc1 as the compound, how does the Potency read?
A: Its Potency is inconclusive: 39.8 µM [activator, single point].

Q: For Cc1nn(-c2ccccc2)c2c1C(=O)N(Cc1ccccc1)C(=O)C(C)(C)C2, which Potency is on record?
A: The Potency was inconclusive: 5.62 µM [activator, partial curve, poor fit].

Q: For COC(=O)[C@]12C[C@H](CC(=O)N3CCSCC3)C(=O)N(CCC3=CCCCC3)C1=C[C@H](C1CCCC1)O[C@@H]2C, which Potency is on record?
A: The Potency was inconclusive: 15.8 µM [activator, partial curve].

Q: Which Potency does the source give for Cc1ccc(C)c(N2CCN(C(=O)C3CCN(S(=O)(=O)c4cccc5nsnc45)CC3)CC2)c1 here?
A: Its Potency is inconclusive: 50.1 µM [activator, partial curve, poor fit].

Q: Which Potency does the source give for Cc1ccc(C)c(N(C)S(=O)(=O)c2ccc3[nH]cc(C(=O)NC4CCCC4)c(=O)c3c2)c1 here?
A: The Potency was inconclusive: 35.5 µM [activator, single point].

Q: For CCOc1ccc(S(=O)(=O)NCC(c2cccs2)S(=O)(=O)c2ccc(C)cc2)cc1 (stereo not given), which “growth rescue (activation)” value is on record?
A: The value was inactive: 7.29%.

Q: Which Potency does the source give for O=C(/C=C/c1ccccc1Cl)N(Cc1ccc(Cl)cc1)C1CCS(=O)(=O)C1 (stereo not given) here?
A: The Potency was inconclusive: 35.5 µM [activator, single point].

Q: With COc1ccc(S(=O)(=O)c2cn(C)c3cc(N4CCOCC4)c(F)cc3c2=O)cc1 as the compound, how does the “growth rescue (activation)” value read?
A: The value was inactive: 15.8%.

Q: With Cc1ccc(NS(=O)(=O)c2ccc3[nH]c4c(c3c2)CCCCC4)cc1 as the compound, how does the Potency read?
A: Its Potency is inconclusive: 50.1 µM [activator, single point].
